In all, about 410,000 compounds went through this assay and about 5,000 (1.2%) were called active. Inconclusive means that the source gave no clear call. Such entries were picked first, then a sample of the others. Calls follow the shape of the dose curve; as a rule, active = well fitted inhibition curve with a large enough effect; inconclusive = small, poorly fitted or top-dose-only effect; inactive = no such curve, though single readings can be large or run the other way. Potencies beside an inconclusive call are fits to weak or partial responses and may not hold up.
Assay: qHTS for Inhibitors of TGF-b; also: nearly all actives have a fitted effect of over 65% in size
Settings: HepG2 CAGA-GFP TGF-b/SMAD3 reporter, GFP fluorescence, 18 h, TGF-beta stimulated, 500 pg/mL final; series mostly up to 46.1 µM; activity, negative = inhibition: at the top concentration
Outline: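 Using HEPG2 CAGA-GFP reporter cells at 1000 cells/well, we pinned test compounds, stimulated with recombinant TGF-beta (500 pg/mL final) and measured total well GFP after 18 h.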
With `NC(=O)c1cccc(-c2ccnc3c2CC(C(=O)Nc2ccc(Cl)cc2)O3)c1` (stereo not given) the “activity, negative = inhibition” value was inactive: -3.89%. With `O=C(C1c2ccccc2Oc2ccccc21)N1CCN(c2ccc(Cl)cc2)CC1` the “activity, negative = inhibition” value was inactive: -7.51%. In the case of `O=C1NCCCCC1NS(=O)(=O)c1ccccc1` (stereo not given), the Potency is reported as inconclusive: 22.4 µM [inhibitor, single point]. With `CC(Oc1ccccc1)C(=O)N1CCC2(CC1)CC(=O)c1ccccc1O2` (stereo not given) the Potency was inconclusive: 35.5 µM [inhibitor, single point]. With `CCOC(=O)CN(C(=O)CSc1nnc2c(n1)[nH]c1ccc(OC)cc12)c1ccc(F)cc1` the Potency was inconclusive: 6.31 µM [inhibitor, single point]. For `CCN(c1ccc(C)cc1)S(=O)(=O)c1nnc(NC(=O)c2cccs2)s1`, the Potency was inconclusive: 28.2 µM [inhibitor, partial curve, poor fit]. For `CCC(C)Nc1nc(-c2c[nH]c3ccccc23)cs1` (stereo not given), the Potency was active: 12.6 µM. For `Cc1ccc(-c2ccc(CCC(=O)O)n2-c2ccc(C(C)C)cc2)cc1`, the Potency was inconclusive: 35.5 µM [inhibitor, single point]. With `O=C(Nc1cccnc1)Nc1ccc(Cl)cc1Cl` the Potency was inconclusive: 35.5 µM [inhibitor, single point]. For `O=C(NCc1cccnc1)c1ccc(=O)oc1`, the Potency was inconclusive: 14.1 µM [inhibitor, single point]. With `Cc1ccc(S(=O)(=O)N2CCN(C(=O)c3cc(=O)c4ccccc4o3)CC2)cc1` the “activity, negative = inhibition” value was inactive: 0.237%. With `COC(=O)c1ccc(OCC(=O)c2ccc(O)cc2O)cc1` the “activity, negative = inhibition” value was inactive: 1.72%. In the case of `COc1ccc(C(C)(C)C)cc1NC(=O)COC(=O)CN1C(=O)NC2(CCCCC2C)C1=O` (stereo not given), the “activity, negative = inhibition” value is reported as inactive: 2.56%. For `COc1ccccc1CNC(=O)Cn1ncc2c(C)n(Cc3ccccc3Cl)c(C)c2c1=O`, the Potency was inconclusive: 6.31 µM [inhibitor, full curve]. For `ClCc1nnc(-c2cc3c(s2)CCCC3)o1`, the Potency was inconclusive: 17.8 µM [inhibitor, partial curve, poor fit]. With `Cc1ccc(NC(=O)/C(C#N)=C\c2ccc(Cl)cc2Cl)cc1C` the Potency was inconclusive: 14.1 µM [inhibitor, single point]. In the case of `COc1ccc(-c2ccc(=O)n(Cc3cc(=O)n4ccccc4n3)n2)cc1`, the Potency is reported as inconclusive: 35.5 µM [inhibitor, single point]. In the case of `CCN(CC)C(=O)CC(c1cc(OC)c(OC)c(OC)c1)c1c(OC)cc(OC)c2ccc(=O)oc12` (stereo not given), the Potency is reported as “inactive”. For `CC(C)Cc1ccc([C@H](C)C(=O)O)cc1`, the “activity, negative = inhibition” value was inactive: 1.66%. In the case of `CCOc1ccc2nc(NC(=O)c3ccc(S(=O)(=O)N4CCOCC4)cc3)sc2c1`, the Potency is reported as inconclusive: 35.5 µM [inhibitor, single point].

Source: PubChem BioAssay AID588855 (National Center for Advancing Translational Sciences (NCATS), 2011)
% is scaled to controls: 0 for no effect and ±100 for the full control effect; potency is read from the fitted curve at half-maximal effect; tags tell the direction and shape of the fitted curve.
